About 12,000 (3.5%) of roughly 340,000 compounds were called active. The inconclusive results got no clear call from the source; some entries with a clear call stand among them for comparison. Calls follow the shape of the dose curve; as a rule, active = well fitted inhibition curve with a large enough effect; inconclusive = small, poorly fitted or top-dose-only effect, or another doubt; inactive = no such curve, though single readings can be large or run the other way. No potency is given beside an inconclusive call; the fits are too rough.
assay: qHTS Assay for Inhibitors of Hepatitis C Virus (HCV); details: Huh7.5.1 HCVcc-Cre (HCVcc is cell-culture hepatitis C virus) infection, luciferase reporter, 44 h; activity change, negative = inhibition: at 41.8 µM (top of the series)
How it was run: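 Cells seeded at 1,000/well and cultured 4 h, then compounds added followed by HCVcc-Cre virus (~0.5 moi). After 44 h further culture, luciferase substrate was added, plates held 15 min at room temperature, and luminescence read for 15 sec.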
% is scaled to controls: 0 for no effect and ±100 for the full control effect; potency is read from the fitted curve at half-maximal effect; tags tell the direction and shape of the fitted curve.

SMILES	Potency	activity change, negative = inhibition
Cc1cc2n(n1)C(c1ccc3c(c1)OCO3)Nc1ccccc1-2 (stereo not drawn)	inconclusive [inhibitor, single point]	–
CCOc1ccc(S(=O)(=O)N2CCOCC2)cc1NC(=O)CSCc1ccc(C)cc1	inconclusive [inhibitor, full curve]	–
CCOc1ccc(NC(=O)CN(C)C(=O)CSCc2c(C)noc2C)cc1OCC	inconclusive [inhibitor, partial curve]	–
Cc1ccc(-n2ncc3c(NCc4ccco4)ncnc32)c(C)c1	–	inactive: -1.58%
O=C(CSc1n[nH]c(=O)[nH]c1=O)c1ccccc1	–	inactive: 10%
CN(C)CCNC(C(=O)Nc1cc(Cl)cc(Cl)c1)c1ccccc1 (stereo not drawn)	inconclusive [inhibitor, single point]	–
CCN(CC)C(=O)C1CCCN(C(=S)Nc2cccc3ccccc23)C1 (stereo not drawn)	–	inactive: 7.01%
CN(Cc1ccccc1)C(=O)C1CCN(S(=O)(=O)c2ccc(-n3cnnn3)cc2)CC1	–	inactive: 0.22%
CN(C)S(=O)(=O)c1ccc2oc(SCC(=O)NCC(F)(F)F)nc2c1	–	inactive: 6.15%
CC(C)CCOP(=O)(c1ccc(N(C)C)cc1)C(O)c1ccc(Cl)cc1Cl (stereo not drawn)	–	inactive: -27.7%
Cc1ccc(S(=O)(=O)N2CCC(=O)N(C(COCc3ccc(Cl)cc3)C(C)C)CC2)cc1 (stereo not drawn)	inconclusive [inhibitor, single point]	–
CCN(c1ccccc1)S(=O)(=O)c1ccc(OC)c(NC(=O)C2=NN(c3ccccc3)C(=O)CC2)c1	inconclusive [inhibitor, single point]	–
O=C(c1ccc(COc2ccc3ccccc3c2)o1)N1N=C(C(F)F)CC1(O)C(F)F (stereo not drawn)	inconclusive [inhibitor, single point]	–
O=c1cnn(Cc2c(Cl)cccc2Cl)c2ccccc12	–	inactive: -5.08%
CN(CC(=O)Nc1cccc(F)c1)C(=O)Cc1n[nH]c(=O)c2ccccc12	–	inactive: 20.3%
Cc1cc(NC(=O)c2cncc(Br)c2)n(-c2ccccn2)n1	inconclusive [inhibitor, single point]	–
COc1cc2c(cc1OC)C(Cc1cc(OC)c(OC)cc1[N+](=O)[O-])=NCC2	inconclusive [inhibitor, single point]	–
Cc1cccc2sc(NC(=O)CCNS(=O)(=O)c3cccc4nonc34)nc12	inconclusive [inhibitor, single point]	–
O=C(Nc1ccccc1)Nc1ccc(Cl)c(S(=O)(=O)N2CCOCC2)c1	inconclusive [inhibitor, partial curve]	–
Fc1ccc(-c2nc3ccncc3[nH]2)cc1	–	inactive: 8.69%
O=C(Nc1ccc(NC(=O)c2sc3ccccc3c2Cl)cc1)c1ccco1	inconclusive [inhibitor, partial curve]	–
CC(=O)Nc1ccc(S(=O)(=O)c2c(N)n(CCN3CCOCC3)c3nc4ccccc4nc23)cc1	–	inactive: 1.48%
CCOC(=O)c1sc2nccc(N(C)C)c2c1N=CNOCc1c(F)cccc1Cl	inconclusive [inhibitor, single point]	–
O=C(CCc1nc2ccccc2c(=O)[nH]1)NC1CCN(Cc2ccccc2)CC1	–	inactive: 14.9%
Cc1c(C)n(CCCN(C)C)c2ncnc(Nc3ccccc3)c12	inconclusive [inhibitor, single point]	–

SMILES	Potency	activity change, negative = inhibition
CCOc1ccsc1C(=O)O	active: 3.16 µM	–
O=C(O)Cc1sc(Nc2cccc3ccccc23)nc1-c1ccc(Cl)cc1	–	inactive: 18.8%
COc1cc(C2c3[nH]c4ccccc4c3CC3COC(=O)N32)cc(OC)c1O (stereo not drawn)	inconclusive [inhibitor, partial curve, poor fit]	–
CNC(=S)N/N=C/c1c2ccccc2c(Cl)c2ccccc12	inconclusive [inhibitor, single point]	–
COc1ccc(Cl)cc1NC(=O)Nc1ccccc1SC	inconclusive [inhibitor, single point]	–
O=C(Cc1ccccc1[N+](=O)[O-])NCc1ccc(Cl)cc1	–	inactive: -8.29%
N#Cc1ccc(-c2ccco2)nc1SCc1ccccc1	inconclusive [inhibitor, partial curve]	–
COc1ccc(-c2cc(=O)oc3cc(OCC(C)=O)ccc23)cc1	inconclusive [inhibitor, single point]	–
O=C(NC1CCCCC1)N1CCCCCC1	–	inactive: 20.4%
COc1ccc2nc3cc(Cl)ccc3c(Nc3ccc(O)c(CN4CCN(C)CC4)c3)c2c1	inconclusive [inhibitor, partial curve]	–
CC1=CC(C)(C)NC(=S)N1c1ccc(C)cc1C	inconclusive [inhibitor, single point]	–
O=C1NC(c2ccccc2)=C(c2nc3ccccc3s2)C(c2ccccc2)N1 (stereo not drawn)	inconclusive [inhibitor, single point]	–
CNC[C@@H](Cc1ccccc1)NC[C@@H](CC1CCCCC1)NCCCc1ccccc1	inconclusive [inhibitor, single point]	–
COc1cccc(NC(=O)CN(C)C(=O)c2cc3c(s2)CCCC3)c1	inconclusive [inhibitor, single point]	–
Cc1cccc(-c2nc(CN3CCCC(C(=O)NC4CCCC4)C3)c(C)o2)c1 (stereo not drawn)	inconclusive [inhibitor, partial curve]	–
Nc1nonc1C(=O)N/N=C/c1ccc([N+](=O)[O-])o1	inconclusive [inhibitor, single point]	–
Cc1sc2ncnc(N3CCC(C(=O)NNC(=O)COc4ccccc4Cl)CC3)c2c1C	inconclusive [inhibitor, partial curve]	–
COc1ccc(/C=C2\SC(=O)N(CCNC(=O)CCS(=O)(=O)c3ccc(C)cc3)C2=O)cc1	inconclusive [inhibitor, partial curve]	–
CC(CCNC(=O)c1ccccc1)(CCNC(=O)c1ccccc1)[N+](=O)[O-]	inconclusive [inhibitor, single point]	–
CCOC(=O)c1[nH]c2c(c1C)C(=O)CC(c1ccc(N(C)C)cc1)C2 (stereo not drawn)	inconclusive [inhibitor, partial curve]	–
Cc1cc(CNCc2c(C(=O)N3CCCCCCC3)nc3ccc(Cl)cn23)nn1C	inconclusive [inhibitor, single point]	–
COc1ccc(CNC(=O)CC2C[C@H](C(=O)N3CCOCC3)[C@@]3(CCC4CCCC4)c4[nH]c5ccccc5c4CCN3C2=O)cc1OC (stereo partly drawn)	active: 7.94 µM	–
COC(=O)c1ccc(CCc2cc(O)ccc2O)cc1	active: 3.98 µM	–
O=C(Nc1cccc(-c2ccc(N3CCOCC3)nn2)c1)c1ccc(Cl)cc1	inconclusive [inhibitor, single point]	–
CC(C)Oc1cccc(NC(=O)c2cnccc2C(F)(F)F)c1	–	inactive: -2.25%

SMILES	Potency	activity change, negative = inhibition
O=C1CC(c2ccccc2)CC(O)=C1C=NCc1ccccc1 (stereo not drawn)	–	inactive: 10.3%
CCN(CC)c1ccc(C(=O)N/N=C/c2ccccc2OC(F)F)cc1	active: 11.2 µM	–
C#CCOCCOCCOCCNc1nc(N2CCOCC2)nc(N2CCN(C(=O)CCCCCCCCCCNC(=O)[C@@H](CCSC)n3cc(CCO)nn3)CC2)n1	–	inactive: -27.7%
COc1ccc(NC(=S)N/N=C/c2cccn2Cc2ccc(F)cc2)cc1	inconclusive [inhibitor, partial curve]	–
O=C1CCCc2oc3ccc(NS(=O)(=O)c4cccc5cccnc45)cc3c21	inconclusive [inhibitor, single point]	–
Cc1cc(C)n(-c2nc3ccccc3nc2Nc2ccc3[nH]c(=O)[nH]c3c2)n1	active: 11.2 µM	–
CCN(c1ccccc1)S(=O)(=O)c1ccc(OC)c(NC(=O)C2CC2)c1	–	inactive: -22.9%
COc1cc2c(cc1OC)CN(CC(=O)Nc1ccc(Cl)cc1Cl)CC2	–	inactive: -26.1%
COC(=O)c1cc(NC(=O)c2cc(C(C)(C)C)nn2Cc2ccc(F)cc2)ccc1N1CCOCC1	active: 10 µM	–
O=C(c1ccco1)N1CCCC(c2nc3c(nnn3Cc3c(Cl)cccc3Cl)c(=O)[nH]2)C1 (stereo not drawn)	–	inactive: -27%
CN(c1ccccc1C(=O)Nc1ccc(CC#N)cc1)S(=O)(=O)c1ccccc1	–	inactive: 4.18%
Cc1nc2ccccc2n1CC(=O)OCC(=O)NCCc1ccccc1	–	inactive: 10.4%
CC(=O)c1ccc(OCc2cc(C(=O)N3CCN(c4ccccc4)CC3C)no2)cc1 (stereo not drawn)	active: 22.4 µM	–
C=CCSc1nnc2nc3[nH]c4c(C)cccc4c3nn12	–	inactive: 9.28%
COC(=O)c1c(C#N)c(N)nc2c1CCCC2	inconclusive [inhibitor, single point]	–
CN(C)CCCNC(=O)/C(=C\c1ccc(-c2ccc(Br)cc2)o1)NC(=O)c1ccccc1	inconclusive [inhibitor, full curve]	–
OCC[C@H]1C[C@H](O)[C@@H](O)[C@@]2(OCc3ccccc32)O1	inconclusive [inhibitor, partial curve]	–
CCCCS/C(N)=N/N=C/c1cc(C)ccc1O	inconclusive [inhibitor, partial curve]	–
COc1ccc(CCNC(=O)COc2ccc(S(=O)(=O)N3CCOCC3)cc2C)cc1	–	inactive: -7.43%
O=C(CCCC(=O)c1ccccc1)NCc1ccccc1	inconclusive [inhibitor, single point]	–
Cc1c(C=O)c2cc(OCc3ccccc3)ccc2n1C	inconclusive [inhibitor, partial curve]	–
COCCn1c(C)cc(C(=O)CSc2ccc3ccccc3n2)c1C	active: 10 µM	–
Cn1ncc2cc(NC(=S)NC(=O)c3ccccc3)ccc21	inconclusive [inhibitor, partial curve]	–

— PubChem BioAssay AID651820 (National Center for Advancing Translational Sciences (NCATS), 2012)
